# Data: PubChem BioAssay
# Inconclusive results, whose numbers are uncertain, are shown with a selection of clear calls. Active and inactive are the calls of the source.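 The calls were made as follows, unless noted: active = viability at or under a set limit in both replicates, limit being median viability minus 3 SD (cut at about 48% in these data, passing the limit was not always enough); inconclusive = at or under the limit in just one replicate; inactive = at or above the limit in both replicates.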
# Experiments:
# [1] = viability of PTEN-null HCT116 cells – cell-based, HCT116 clonal line, CellTiter-Glo, pilot screen (AID 824;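 active = viability at or below 27.92% in each of two runs, the all-compound median minus 4 SD; inconclusive = no clear call, values can overlap the other calls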;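 also: 0% = 20 µM Hyamine control and 100% = vehicle cell control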); conditions: HCT116 PTEN-deleted viability, 60 h, at 10 µM, hits give low values
# [2] = RAM signaling pathway blockade in yeast – S. cerevisiae, Pdr1DBD-CYC8 efflux-inhibited sensitized strain, primary screen (AID 1298;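 active = RAM network inhibition above 8.4% in each of two replicates, 3 SD over the compound average; inconclusive = above 8.4% inhibition in only one replicate; inactive = 8.4% inhibition or less in each replicate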;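 also: 0% = DMSO untreated cells without growth and 100% = 10 µM 1-NA-PP1 full growth; higher means more yeast growth rescued from 5-FOA killing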); conditions: S. cerevisiae cbk1-as DSE1-URA3 strain, 5-FOA growth OD615, 2 d; at 50 µM; hits give high values
# [3] = RAM pathway blockade in budding yeast – dse1pr::URA3 reporter, 5-FOA selection, pilot screen (AID 869;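 active = inhibition over a set limit, the all-compound mean plus 3 SD, in both replicate runs; inconclusive = over that limit in just one replicate run; inactive = at or under that limit in both runs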;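 also: 0% = DMSO wells with no growth and 100% = 10 µM 1-NA-PP1 with full growth; RAM network block rescues cells from 5-FOA so hits raise OD615 growth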); conditions: S. cerevisiae dse1pr::URA3 5-FOA growth, OD615, 2 d; at 10 µM; hits give high values; strain carries analog-sensitive mutant Cbk1 kinase
# [4] = reduced viability of SK-BR-3 breast cancer cells – cell-based, 24 h, human, pilot screen (AID 572;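 active = viability at or below 10% of carrier control in both of two separate runs; inconclusive = viability at or below 10% in only one of the two runs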;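 also: compound exposure lasted between 18 and 24 h rather than exactly 24 h; 100% = carrier-treated control wells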); conditions: SK-BR-3 viability, CellTiter-Glo luminescence, at 10 µM, hits give low values
# [5] = MRP1 drug-resistance reversers in H69AR cells – cell-based, doxorubicin co-treatment, pilot screen (AID 601;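 active = viability loss from added drug above about 55%, and viability with drug at most 40%, in both replicates, limit read from the data, passing the limit was not always enough; inconclusive = both conditions met in only one replicate; inactive = neither replicate meets both conditions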); conditions: H69AR cells + 2 uM doxorubicin, CellTiter-Glo, 72 h; at 10 µM; hits give high values
# [6] = viability of HCT116 without oncogenic beta-catenin – human colon tumor cells, pilot screen (AID 823;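 active = cell viability at or below a set limit in both duplicate runs, the limit being the all-compound median minus 4 SD, cut at about 23% in these data, passing the limit was not always enough; inconclusive = no clear call, values can overlap the other calls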;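 also: 0% = wells killed by 20 µM Hyamine and 100% = untreated DMSO cell wells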); conditions: HCT116 beta-catenin knockout viability, CellTiter-Glo, 60 h; at 10 µM; hits give low values
# [7] = HUVEC growth inhibition – cell-based, human, primary screen (AID 575;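 active = viability at or below 30% in both replicate assays; inconclusive = viability at or below 30% in just one of the two assays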;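 also: 100% = median of untreated cell wells with 0.1% DMSO on each plate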); conditions: HUVEC proliferation, CellTiter-Glo luminescence, 72 h; at 10 µM; hits give low values
# How it was run: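 Test system: primary human umbilical vein endothelial cells; medium: endothelial basal medium with 2% FBS plus growth supplements; dosing: 10 µM compound only; times: 72 h treatment at 37 °C; signal: CTG luminescence; read-out: % viability relative to median vehicle-well signal on each plate; control set: vehicle and MePR control wells; plate: 384-well, collagen-coated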
# [8] = H69AR cell proliferation blockers – human, duplicate replicates, primary screen (AID 580); conditions: H69AR lung tumor cells viability, ATP luminescence, 72 h; at 10 µM; hits give low values;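 also: 100% = mean luminescence of untreated wells and 0% = no signal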
compound,measurement,setting,value
COc1cc(/C=C/C2=NC(=O)C(C)(C)O2)ccc1O,viability,[1],inactive: 71.9%
same,RAM network inhibition,[2],inconclusive: 10%
CCCCCOC(=O)CSc1nc2c(c(=O)[nH]c(=O)n2C)n1Cc1ccc(Cl)cc1,inhibition,[3],inconclusive: 6.67%
same,RAM network inhibition,[2],inactive: 2.16%
CNC(=O)c1c(N)sc2c1CCCCC2,viability,[1],inactive: 88.1%
same,RAM network inhibition,[2],inactive: 4.13%
CN(C)c1nc(N(C)C)nc(N(C)C)n1,viability,[4],inactive: 95%
COc1ccc(-c2noc(-c3cc(C)cc(C)c3)n2)cc1OC,inhibition,[3],inconclusive: 4.51%
same,RAM network inhibition,[2],inconclusive: 13.1%
CCOC(=O)c1ccc(NC(=O)c2cc3ccccc3o2)cc1,viability,[1],inactive: 86.6%
same,inhibition,[3],inactive: 1%
same,RAM network inhibition,[2],inconclusive: 10.7%
COc1ccc(S(=O)(=O)Nc2cccc(C)n2)c2ccccc12,viability,[4],inactive: 94%
COc1cccc(CSc2nc3sc(C)c(C)c3c(=O)n2Cc2ccco2)c1,inhibition,[3],inconclusive: 4.9%
same,RAM network inhibition,[2],inconclusive: 11.6%
COC(=O)c1ccc(CSc2ccc3nnc(-c4cccc(F)c4)n3n2)o1,viability,[1],inactive: 91.4%
same,RAM network inhibition,[2],inconclusive: 15.4%
O=C(NC1CCCc2ccccc21)c1ccc(CNc2c(N3CCOCC3)c(=O)c2=O)cc1 (stereo not given),inhibition,[3],inconclusive: 4.88%
same,RAM network inhibition,[2],inactive: 6.53%
Cc1cccc(-n2c(=O)cc(N3CCN(c4ccc(F)cc4)CC3)[nH]c2=O)c1,viability,[1],inactive: 66.1%
same,RAM network inhibition,[2],inconclusive: 36.6%
O=C(C1CCN(c2nnc(-n3cccc3)s2)CC1)N1CCN(Cc2ccc3c(c2)OCO3)CC1,viability,[1],inactive: 64.8%
same,RAM network inhibition,[2],inconclusive: 15%
Clc1ccc(C2Nc3ccccc3-n3cccc32)cc1 (stereo not given),viability,[1],inactive: 81.3%
same,RAM network inhibition,[2],inconclusive: 14.1%
Cc1cc(NCc2ccc3c(c2)OCO3)n2nc(C)nc2n1,viability,[1],inactive: 87.5%
same,RAM network inhibition,[2],inactive: -0.15%
CSc1nc(NCCOCCO)c2sc3nc(-c4ccco4)c4c(c3c2n1)CCC4,viability,[1],inconclusive: 77.5%
same,RAM network inhibition,[2],inconclusive: 10.1%
COc1cc(C2=Nc3c(c(C)nn3-c3ccccc3)P(=O)(N3CCOCC3)O2)cc(OC)c1OC (stereo not given),viability,[1],inconclusive: 85.8%
same,inhibition,[3],inactive: 0.485%
same,RAM network inhibition,[2],inactive: 2.86%
Cc1cc(C)c2c(=O)[nH]c(=O)n(Cc3ccccc3)c2n1,viability,[4],inconclusive: 64%
CCn1c(=O)c2cc(C(=O)Nc3cc(C)on3)sc2c2ccccc21,inhibition,[3],inconclusive: 3.78%
same,RAM network inhibition,[2],inactive: 4.19%
COc1ccccc1C(=O)NCCc1nc2ccccc2n1C,viability,[1],inconclusive: 91.7%
same,RAM network inhibition,[2],inactive: 5.39%
COc1cc2[nH]c(=O)n(CCC(=O)N3CCN(c4cccc(C)c4C)CC3)c(=O)c2cc1OC,viability,[1],inconclusive: 75.2%
same,RAM network inhibition,[2],inactive: 5.67%
O=C(O)c1ccccc1S,viability,[4],inconclusive: 36%
COc1cccc(NC(=O)c2ccc(S(=O)(=O)N3CCCCC3)cc2)c1,inhibition,[3],inactive: 1.28%
same,RAM network inhibition,[2],inconclusive: 8.33%
Cc1cc(NC(=O)CSc2ccc(Cl)cc2)no1,viability,[4],inactive: 88.5%
O=C(Nc1nncs1)c1ccccc1NS(=O)(=O)c1cccs1,viability,[1],inconclusive: 90.3%
same,RAM network inhibition,[2],inactive: 4.37%
Cc1c(C(=O)NCc2cccs2)oc2ccc(S(=O)(=O)N3CCOCC3)cc12,viability,[1],inconclusive: 83.1%
same,RAM network inhibition,[2],inconclusive: 18.9%
O=C(Nc1nc(-c2nc3ccccc3s2)cs1)C1COc2ccccc2O1 (stereo not given),inhibition,[3],inconclusive: 4.21%
same,RAM network inhibition,[2],inactive: 2.13%
O=C(c1ccco1)N1CCN(C(=O)c2sccc2-c2ccccc2)CC1,viability,[1],inconclusive: 92.8%
same,RAM network inhibition,[2],inactive: 4.79%
CCCOc1cccc(C(=O)Nc2cccnc2)c1,inhibition,[3],inactive: 0.93%
same,RAM network inhibition,[2],inconclusive: 11.3%
Cc1cc(C)c(OCC(=O)Nc2cccc(NC(=O)c3ccco3)c2)c(Br)c1,viability,[1],inactive: 60.8%
same,RAM network inhibition,[2],inactive: 3.46%
COc1ccc(N2CCN(c3oc(COc4ccccc4Cl)nc3C#N)CC2)cc1,inhibition,[3],inconclusive: 6.68%
same,RAM network inhibition,[2],inactive: 4.12%
CCn1c(SCC(=O)Nc2ccc3c(c2)OCO3)nnc1-c1ccccc1O,viability,[4],inactive: 96%
CNCCCC12CCC(c3ccccc31)c1ccccc12,viability,[4],inconclusive: 47.5%
COC(=O)CNc1c(-c2ccccn2)nc2ccc(Br)cn12,viability,[1],inconclusive: 91.4%
same,RAM network inhibition,[2],inconclusive: 12%
CCN1CCN(Cc2nc3c(c(=O)[nH]c(=O)n3C)n2Cc2ccccc2Cl)CC1,viability,[4],inconclusive: 80.5%
Cn1c(=O)n(CCN2CCOCC2)c(=O)c2c1nc1n2CCN1c1ccccc1,viability,[4],inconclusive: 41.5%
CCCc1nnc(NC(=O)c2ccncc2)s1,viability,[1],inactive: 99.1%
same,RAM network inhibition,[2],inconclusive: 9.91%
CCOc1ccc(CN2CCN(c3cc(C)nc4c5c(C)cc(C)nc5nn34)CC2)cc1,viability,[4],inactive: 80%
COc1ccccc1C(=O)Nc1c2c(nn1-c1cccc(C)c1C)CS(=O)(=O)C2,viability,[4],inconclusive: 50%
OCCN1CCN(CCCN2c3ccccc3Sc3ccc(C(F)(F)F)cc32)CC1,differential viability (reversal),[5],inactive: -2.74%
Cc1ccc(C)c(N2CCN(CCCNC(=O)Cn3cc4c(n3)CCCCC4)CC2)c1,viability,[6],inconclusive: 20.8%
COc1ccccc1S(=O)(=O)Cc1ccc(C(=O)NCCN2CCCCCC2)o1,viability,[6],inactive: 104%
CC1CCN(C(=O)Cn2cc3c(n2)CCCC3)CC1,inhibition,[3],inactive: 0.615%
Oc1c(I)cc(Cl)c2cccnc12,viability,[7],active: 8.13%
same,viability,[8],inconclusive: 35.8%
CSc1nnc2c3ccccc3n(Cc3ccccc3)c2n1,viability,[7],inconclusive: 24.4%
same,viability,[8],active: 31.6%
Cc1ccc(Cn2c(C)nc3c(c2=O)c2nc4ccccc4nc2n3Cc2ccco2)cc1,viability,[7],inactive: 54.9%
same,viability,[8],inconclusive: 49%
CC(=Nc1cccc(O)c1)c1sc2ccccc2c1O,viability,[7],inconclusive: 40.2%
same,viability,[8],inconclusive: 54.5%
CCN(CC)CC(=O)Nc1ccc(-c2nc3cc(NC(=O)CN(CC)CC)ccc3o2)cc1,viability,[7],active: 3.96%
same,viability,[8],inconclusive: 44.2%
COc1cccc(C(=O)OCn2nnc3ccccc3c2=O)c1OC,viability,[7],inactive: 97.7%
same,viability,[8],inactive: 86.9%
O=C(/C=C/c1ccccc1)c1ccccc1,viability,[7],inactive: 50.2%
same,viability,[8],inconclusive: 2.06%
CCc1nnc(NC(=O)c2ccc(S(=O)(=O)N(CC(C)C)CC(C)C)cc2)o1,viability,[7],inconclusive: 33.3%
same,viability,[8],active: 32.9%
Cn1c(=O)oc2cc(S(=O)(=O)N3CCN(c4ccccn4)CC3)ccc21,viability,[7],inconclusive: 44.5%
same,viability,[8],inactive: 73.8%
COc1cc(C)nc(N2CCCC(C(=O)Nc3cccc(Cl)c3Cl)C2)n1 (stereo not given),viability,[7],inconclusive: 41%
same,viability,[8],inconclusive: 56.4%
CCN1CCc2c(C#N)c(N3CCCCC3)nc(NCc3ccccc3)c2C1,viability,[7],active: 2.17%
same,viability,[8],active: 16.3%
COc1cc2nc(N3CCN(C(=O)C4COc5ccccc5O4)CC3)nc(N)c2cc1OC (stereo not given),viability,[7],inconclusive: 19.7%
same,viability,[8],inconclusive: 8.23%
Cc1ccc2c(c1)NC(=O)C(CC(=O)NCCCN1CCN(c3cc(Cl)ccc3C)CC1)O2 (stereo not given),viability,[7],active: 1.67%
same,viability,[8],active: 22.9%
O=S(=O)(c1ccc(Oc2ccc(-c3nnco3)cc2)nc1)N1CCC(Cc2ccccc2)CC1,viability,[7],inconclusive: 33.7%
same,viability,[8],inconclusive: 51.9%
COc1ccc(-c2nc(N)nc(C)c2Oc2ccccc2Br)c(O)c1,viability,[7],inconclusive: 33.6%
same,viability,[8],active: 5.08%
CCC(=O)Oc1ccc(/C(CC)=C(\CC)c2ccc(OC(=O)CC)cc2)cc1,viability,[7],inconclusive: 30.9%
same,viability,[8],inconclusive: 8.75%
COc1ccc(-c2n[nH]c(C)c2-c2ccc(Cl)cc2)c(O)c1OC,viability,[7],inconclusive: 29.2%
same,viability,[8],active: 23.2%
CSc1nc(N2CCOCC2)c2c(c1C#N)CCCCC2,viability,[7],inconclusive: 43.1%
same,viability,[8],inactive: 86.8%
CN1CCN(CCCN2c3ccccc3Sc3ccc(Cl)cc32)CC1,viability,[7],active: 3.48%
same,viability,[8],inconclusive: 43.1%
Cc1ccc(NC(=O)COS(=O)c2ccc(C)cc2)cc1 (stereo not given),viability,[7],inactive: 69%
same,viability,[8],inconclusive: 38.6%
O=C(O)CCc1cc(I)c(Oc2ccc(O)c(I)c2)c(I)c1,viability,[7],inconclusive: 62.1%
same,viability,[8],inactive: 102%
CCOC(=O)/C=C(\C)Sc1cc(=O)oc2ccccc12,viability,[7],inconclusive: 21.9%
same,viability,[8],active: 6.09%
Cc1csc(NC(=O)c2sc3nc(-c4cccs4)ccc3c2N)n1,viability,[7],inconclusive: 42.5%
same,viability,[8],inconclusive: 47.9%
COc1cc(C(=O)Nc2nc(-c3cccs3)cs2)cc(OC)c1OC,viability,[7],inconclusive: 27.2%
same,viability,[8],active: 22.9%
C/C=C/CSc1nc2c(c(=O)[nH]c(=O)n2C)n1Cc1ccc(C)cc1,viability,[7],inconclusive: 25.6%
same,viability,[8],active: 35.5%
C[C@]12CC[C@@H]3c4ccc(OC(=O)c5ccccc5)cc4CC[C@H]3[C@@H]1CC[C@@H]2O,viability,[7],inconclusive: 25.2%
same,viability,[8],inconclusive: 39%
N#C/C(=C(/O)COC(=O)CCC1CCCCC1)c1nc2ccccc2[nH]1,viability,[7],inconclusive: 47%
same,viability,[8],active: 38.1%
COc1ccc(Cl)c(N2CCN(CCCNC(=O)Nc3ccc(C)cc3)CC2)c1,viability,[7],inconclusive: 54.8%
same,viability,[8],inconclusive: 45.4%
O=S(=O)(Cc1ccc(Cl)cc1)Nc1ccc2c(c1)OCO2,viability,[7],inconclusive: 40.8%
same,viability,[8],inactive: 104%
CCOC(=O)c1c(C)oc2c1c1c(c3ccccc32)OCN(Cc2cccnc2)C1,viability,[7],inconclusive: 27.2%
same,viability,[8],inconclusive: 51.6%
COc1ccccc1N1CCN(Cc2nc(N)nc(Nc3ccc(C)c(Cl)c3)n2)CC1,viability,[7],inconclusive: 21.4%
same,viability,[8],inconclusive: 38.8%
Oc1c(Cl)cc(Cl)cc1Sc1cc(Cl)cc(Cl)c1O,viability,[7],active: 1.36%
same,viability,[8],inconclusive: 11.4%
